In PubChem BioAssay AID624296 (National Center for Advancing Translational Sciences (NCATS), 2012):
The whole screen tested about 350,000 compounds, of which about 9,900 (2.8%) were called active. This list was built around the results that the source calls inconclusive (neither active nor inactive); the mix of calls is not that of the screen. The call rests on the fitted dose curve; in most records, active means well fitted activation curve with a large enough effect; inconclusive means small, poorly fitted or top-dose-only effect; inactive means no such curve, though single readings can be large or run the other way. Potencies of inconclusive entries are left out as doubtful fits.

Assay: A quantitative high throughput screen for small molecules that induce DNA re-replication in MCF 10a normal breast cells. Further: nearly all actives have a fitted effect of over 50% in size. On activity, positive = re-replication: % of control where 0% means no effect.
Details: MCF 10A DNA re-replication, Hoechst nuclear intensity, 48 h; activity, positive = re-replication: at 46.1 µM (top of the series)
Potency means the concentration at half of the fitted maximal effect; tags describe the fitted curve by direction and shape.

Row | SMILES | Potency | activity, positive = re-replication
1 | Cc1ccc2c(c1)C(=O)N1[C@H]3c4ccccc4OC[C@@H]3[C@H](c3ccccc3)[C@]1(C)C(=O)N2 | inconclusive [activator, full curve, poor fit] | –
2 | CC(=O)Nc1nc2ccccc2n1Cc1ccc(C)cc1 | inconclusive [activator, full curve, poor fit] | –
3 | CC1CCN(C(C)C(=O)Nc2cc(S(=O)(=O)N3CCCCC3)ccc2Cl)CC1 (configuration not stated) | – | inactive: 4.75%
4 | O=C(CNC1CCCCC1)Nc1ccc([N+](=O)[O-])cc1C(=O)Nc1ccccc1F | inconclusive [activator, single point] | –
5 | Cc1ccc(-c2cc(C(F)(F)F)c(C#N)c(SCCC#N)n2)o1 | inconclusive [activator, full curve] | –
6 | CCN1CCCC1CN(Cc1cc2ccc(C)cc2[nH]c1=O)C(=S)Nc1cccc(OC)c1 (configuration not stated) | – | inactive: 14.8%
7 | CCOC(=O)C1=C(C)OC(N)=C(C#N)C1c1cc(F)ccc1F (configuration not stated) | – | inactive: -0.632%
8 | CCOC(=O)CSCC(=O)Nc1c(C(=O)C2CC2)oc2ccccc12 | – | inactive: 7.67%
9 | CNC(=O)c1c[nH]c2ccc(S(=O)(=O)Nc3ccccc3F)cc2c1=O | – | inactive: 7.04%
10 | CCc1c(C(=O)NCc2ccccc2Cl)[nH]c(C)c1C(C)=O | inconclusive [activator, partial curve, poor fit] | –
11 | N[C@@H](Cc1cnc[nH]1)C(=O)Nc1ccc2ccccc2c1 | inconclusive [activator, single point] | –
12 | Cc1cc(NC(=O)CSc2nc3c(sc4ccccc43)c(=O)n2CCCN2CCOCC2)n[nH]1 | inconclusive [activator, single point] | –
13 | COc1ccc(CCNCc2c(-c3ccccc3)n(C)c3ccccc23)cc1 | inconclusive [activator, single point] | –
14 | Fc1cccc(/C=N/Nc2ncnc3nc[nH]c23)c1 | inconclusive [activator, full curve, poor fit] | –
15 | O=C(/C=C1\C(=O)Nc2ccccc21)/C=C1\C(=O)Nc2ccccc21 | inconclusive [activator, single point] | –
16 | CC[C@]12c3[nH]c4ccc(Cl)cc4c3CCN1C(=O)[C@@H](CC(=O)NC/C=C(\C)CCC=C(C)C)C[C@@H]2C(=O)N1CCN(C(=O)C2CC2)CC1 | inconclusive [activator, partial curve, poor fit] | –
17 | CC1(C)CC(=O)C2=C(C1)OC(N)=C(C#N)C2c1cn(-c2ccccc2)nc1-c1ccccc1 (configuration not stated) | inconclusive [activator, single point] | –
18 | CC(=O)c1c(C)nc(Nc2nc(C)c3cc(C)ccc3n2)nc1C | – | inactive: 1.01%
19 | COc1ccc(/C=C/C(=O)Nc2ccccc2C(=O)NCC(c2ccc(OC)cc2)N(C)C)cc1 (configuration not stated) | inconclusive [activator, single point] | –
20 | O=C(O)CCn1c(-c2ccccn2)nc2ccccc21 | – | inactive: -4.29%
21 | Cc1c(Cc2ccccc2)sc(NC(=O)c2ccco2)c1C(N)=O | active: 14.6 µM | –
22 | COc1ccc(C(=O)NN(C)c2nc(-c3ccccc3)nnc2C(F)(F)F)cc1 | – | inactive: 8.78%
23 | Cc1ccccc1-n1cnc2cc(NCc3cccs3)ccc21 | inconclusive [activator, single point] | –

Row | SMILES | Potency | activity, positive = re-replication
24 | CC(C)(C)OC(=O)COc1cc(OCC(=O)OC(C)(C)C)c2c(=O)cc(-c3ccccc3)oc2c1 | – | inactive: 6.65%
25 | Cc1ccccc1-n1c(SCC(=O)c2cc(C)n(C)c2C)nnc1-c1ccncc1 | – | inactive: 14.3%
26 | O=C(NCc1ccc(Cl)cc1)C(=O)NCC(c1cccnc1)N1CCN(c2ccc(F)cc2)CC1 (configuration not stated) | inconclusive [activator, single point] | –
27 | O=C(CN1C(=O)CCC1=O)Nc1nc(-c2ccc3ccccc3c2)cs1 | active: 1.46 µM | –
28 | CCCCCCSc1cccc(-c2nc3ccccn3c2NCc2ccccc2)c1 | active: 20.6 µM | –
29 | CCC(C)c1ccc(NC(=O)COc2c(F)c(F)c(C(F)(F)F)c(F)c2F)cc1 (configuration not stated) | inconclusive [activator, single point] | –
30 | CCCCC(CC)C(=O)NCc1ccc(F)cc1 (configuration not stated) | inconclusive [activator, partial curve, poor fit] | –
31 | COc1ccc(-c2ccc3c(c2)S(=O)(=O)c2cccc(C(=O)NC4CCCC4)c2C3=O)cc1OC | inconclusive [activator, single point] | –
32 | C=CCOc1ccccc1CN(C(=O)CCl)c1ccc2c(c1)OCO2 | inconclusive [activator, single point] | –
33 | COc1ccc(N(CC(=O)Nc2ccc(F)c(Cl)c2)S(=O)(=O)c2c(C)noc2C)cc1 | – | inactive: 13.7%
34 | CCC(=O)Nc1cccc(-c2ccc(N3CCN(C)CC3)nn2)c1 | inconclusive [activator, partial curve, poor fit] | –
35 | CN1CCN(NC(=S)NC(C)(C)CC(C)(C)C)CC1 | – | inactive: 1.75%
36 | O=[N+]([O-])c1ccc(O)c(/C=N/Nc2ccccn2)c1 | inconclusive [activator, partial curve, poor fit] | –
37 | CCOc1ccc2ccccc2c1/C=N/NC(=O)c1c(C)cc(C)[nH]c1=O | inconclusive [activator, partial curve, poor fit] | –
38 | CC1CCCN(C(=O)Cn2c(-c3nonc3N)nc3ccccc32)C1 (configuration not stated) | – | inactive: 15%
39 | CC1=CCC2C(=O)N(c3cccc(C(=O)Nc4ccccc4Cl)c3)C(=O)C2C1 (configuration not stated) | – | inactive: -1.99%
40 | CCN1CCN(C(=O)c2ccc3c(=O)n(CCc4ccccc4)c(=O)[nH]c3c2)CC1 | inconclusive [activator, partial curve] | –
41 | CCOc1ccccc1C(=O)N1CCN(c2ccc(C(F)(F)F)cn2)CC1 | inconclusive [activator, single point] | –
42 | CCc1ccc2c(c1)[C@H]1OCC[C@H]1[C@@H](c1cccs1)N2 | active: 5.8 µM | –
43 | O=C(O)CN1C(=O)c2ccc(Oc3ccc([N+](=O)[O-])cc3)cc2C1=O | inconclusive [activator, single point] | –
44 | OCCNCc1ccc(-c2ccccc2)cc1 | – | inactive: 14%
45 | CSc1ncccc1C(=O)Nc1nnc(C2CC2)s1 | – | inactive: -1.3%
46 | C=C1CCN([C@H](C(=O)NCc2ccccc2)C(C)C)S(=O)(=O)c2ccccc21 | inconclusive [activator, full curve, poor fit] | –

Row | SMILES | Potency | activity, positive = re-replication
47 | CC(=O)NCCc1csc(-c2ccccc2)n1 | active: 6.51 µM | –
48 | Cc1cc(NCCCN2CCOCC2)n2c(nc3ccccc32)c1C#N | inconclusive [activator, full curve, poor fit] | –
49 | N#Cc1cccc(NC(=O)CNc2cccc(S(=O)(=O)N3CCCC3)c2)c1 | inconclusive [activator, single point] | –
50 | O=C(CNC(=O)c1ccccc1F)NCCc1ccccc1F | – | inactive: -3.79%
51 | Cc1nc(N2CCN(C(=O)c3ccco3)CC2)c2oc3ccccc3c2n1 | inconclusive [activator, partial curve, poor fit] | –
52 | CN(CC(=O)Nc1cccc(F)c1)CC(=O)Nc1ccccc1[N+](=O)[O-] | inconclusive [activator, partial curve, poor fit] | –
53 | Oc1c(C(c2ccccn2)N2CCCCC2)cc(Cl)c2cccnc12 (configuration not stated) | active: 20.6 µM | –
54 | CC(C)CN(CC(C)C)C(=S)NC1CCCCC1 | inconclusive [activator, partial curve, poor fit] | –
55 | O=C(Nc1nnc(CC(=O)N2CCOCC2)s1)c1cccs1 | inconclusive [activator, single point] | –
56 | Cc1occc1C(=O)NC1CCCN(Cc2ccc(Cl)cc2)C1 (configuration not stated) | inconclusive [activator, partial curve, poor fit] | –
57 | COc1ccc(/C=C/C(=O)c2c(O)cc(C)oc2=O)c(OC)c1 | inconclusive [activator, single point] | –
58 | O=C(/C=C/c1ccccc1)NC(NC(=S)Nc1cccc(O)c1)C(Cl)(Cl)Cl (configuration not stated) | inconclusive [activator, partial curve, poor fit] | –
59 | O=C(CC1C(=O)NCCN1Cc1ccc(Cl)c(F)c1)NC1CCC1 (configuration not stated) | – | inactive: 9.4%
60 | O=C(CCN1CCN(Cc2ccccc2)CC1)NNC(=O)Nc1cccc(C(F)(F)F)c1 | inconclusive [activator, partial curve, poor fit] | –
61 | Cc1cc(C)c(S(C)(=O)=O)c(Oc2cccc(C(F)(F)F)c2)n1 | inconclusive [activator, single point] | –
62 | C/C(=N\O)C(=O)OC1CC(C)CCC1C(C)C (configuration not stated) | inconclusive [activator, single point] | –
63 | COc1ccc(-c2nnc(-c3cc(OC)c(OC)c(OC)c3)o2)cc1OC | inconclusive [activator, partial curve, poor fit] | –
64 | Cn1cc(C(=O)CCl)c2ccccc21 | inconclusive [activator, single point] | –
65 | Clc1cccc(CSc2nccn2-c2ccccc2)c1 | inconclusive [activator, partial curve, poor fit] | –
66 | CO[C@@]12[C@@H]3N[C@@H]3CN1C1=C(C(=O)C(N)=C(C)C1=O)[C@@H]2COC(N)=O | inconclusive [activator, partial curve] | –
67 | O=C(NCC(c1cccs1)N1CCOCC1)C1CCN(S(=O)(=O)c2ccccc2C(F)(F)F)CC1 (configuration not stated) | inconclusive [activator, partial curve, poor fit] | –
